The source gives no read counts; variants with many changes may rest on few reads.
B1: LINE1-mini (parent)
chain: GGCAGAGCUCAACACAGCGUGGCAAAGUGGCUGUGGCUAGACUGCC

Variants of: B1
Assay: self-cleavage, relative activity (ratio to wild type); higher = more cleavage; in vitro, sequencing; the parent is a self-cleaving ribozyme

Q: With GGCAGAGUUCAACACAGCGUUGGACAGUGGCCGUGGCUAGACUGCC as the variant, how does the self-cleavage read?
A: Its self-cleavage is 0.03.

Q: For GGCAGAGCUCAACACAGCGUUGUAAAGUGGCUGUGGCUGGACUGCC, which self-cleavage is on record?
A: The self-cleavage was 0.09.

Q: Which self-cleavage does the source give for GGCAGAGCUCAACACAGCGUGGCUAAGUGGCUGAGUCUAGACUGCC here?
A: Its self-cleavage is 0.04.

Q: For GGCAGGGCUCCACACAGCGUGGCAAAGUGGCUGGGGCUAGACUGCC, which self-cleavage is on record?
A: Its self-cleavage is 0.03.

Q: Which self-cleavage does the source give for GGCAGAGAUCAACACAGGGUGGCAAACUGGAUGUGGAUAGACCGCC here?
A: The self-cleavage was 0.01.

Q: Which self-cleavage does the source give for GGCAGAGCUCAACACAGCGUGGCAAAGCGGCUGUGCCUAGAGUGCC here?
A: Its self-cleavage is 0.01.

Q: With GGCAGACCACAACACAGCAUGGCAAAGUGGCUGUGGCUAGACUGCC as the variant, how does the self-cleavage read?
A: The self-cleavage was 0.09.

Q: With GGCAGAUCUGAACACAGCGUGGCAAAGUGGCUGUGGCUAGACUCCC as the variant, how does the self-cleavage read?
A: Its self-cleavage is 0.01.

Q: For GGUAGAGCUUAACACAGCGUGGCAACGUCGCCGUGGCUAGACUGCC, which self-cleavage is on record?
A: Its self-cleavage is 0.03.

Q: With GGCAAGGCUCAACACAGCGUGGCAGAGUGGCUGUGACUAGACUGCC as the variant, how does the self-cleavage read?
A: Its self-cleavage is 0.07.

Q: For GGCAGCGCUCAACACAGCGUGGCAAAGUGGCUGUGGCAAGACUACC, which self-cleavage is on record?
A: The self-cleavage was 0.08.

Q: Which self-cleavage does the source give for GCCAGAGCUCAACCCAGCGUGGCAAAGUGGCUGUGGCUAGAAUGCC here?
A: Its self-cleavage is 0.01.

Q: Which self-cleavage does the source give for GGCAAAGCUUAACACUGCGUGGAAAAGUCGCUGUGGCUAGACUGCC here?
A: Its self-cleavage is 0.02.

Q: With GGCAUAGCUCAAUACAGCGUGUAAAAGUGGAUGUGGCUAGUCUGCC as the variant, how does the self-cleavage read?
A: Its self-cleavage is 0.01.

Q: Which self-cleavage does the source give for GGCAGAGAUUAAAACAGCGUGGCAAAAUGGCUGGGGCCAGAUUGCC here?
A: The self-cleavage was 0.04.

Q: With GGCAGAGUCCAACACAGCGUGGCAAAGUGGCUGUGGCUAGACUCCC as the variant, how does the self-cleavage read?
A: Its self-cleavage is 0.04.

Q: With GGCAGAGCUCAACAUAGCGUGCCAAAGUGGCUGUGGGGAGACUGCC as the variant, how does the self-cleavage read?
A: Its self-cleavage is 0.04.

Q: For GCCAGAGCUCAACACAGCGUGGCAAAGUGGCUGUGGCUCGACUGCA, which self-cleavage is on record?
A: Its self-cleavage is 0.

Q: For GGCAGAGCUUAACACAGCGUGGCAAAGUGACUGUGGCUAGACUUAC, which self-cleavage is on record?
A: Its self-cleavage is 0.12.

Q: Which self-cleavage does the source give for GGCACAGCUAAACACAGCGUGGCAAAGUGGCUGUGGCUAGAUUGCC here?
A: The self-cleavage was 0.05.

Q: For GGCAGAGCUAAACACAGCGUGUUAAAGUGGCUGUGGCUAGACUGCC, which self-cleavage is on record?
A: Its self-cleavage is 0.03.

Q: Which self-cleavage does the source give for CGCAGAGCUAAACACAGCGUGGCAAAGUGGCUGUGGCUAGAGUGCG here?
A: Its self-cleavage is 0.

Q: Which self-cleavage does the source give for GGCAGGGCUCAACACAGCGGGGCAAAGUGGCUGUGGCGAGCCUGCG here?
A: The self-cleavage was 0.01.

Q: Which self-cleavage does the source give for GGCAGAGCUGAACACAGCGUGGCAAAGUGACUGUGUCUAGACUGCC here?
A: The self-cleavage was 0.02.

Q: Which self-cleavage does the source give for GGCAGUGCUCAACACAGCGUGGAAAAGUGGCUGUGGCUAGACCGCC here?
A: Its self-cleavage is 0.1.

Q: With GGCUGAGCUCAACACAGCAUGGCACAGUGGCUGUGGGUAGUCUGCC as the variant, how does the self-cleavage read?
A: The self-cleavage was 0.03.

Q: With GGCAGAGCUCAACACAGCGUGGCGAUGUGGCUGUGGCGAGACUGCC as the variant, how does the self-cleavage read?
A: The self-cleavage was 0.04.

Q: For GGCGGAGGUCAACACAGCGUGGAAAAGUGGCUGUGGCUACACUGCC, which self-cleavage is on record?
A: Its self-cleavage is 0.06.

Q: With GGCAGAGCUCAACACAGCGUGGCAAAGUGGCUGUGGCGAUACUACC as the variant, how does the self-cleavage read?
A: The self-cleavage was 0.03.

Q: Which self-cleavage does the source give for GGCAAAGCUCAACACAGCGUGGCAAACUGGCUGAGCCUAGACUGCC here?
A: Its self-cleavage is 0.01.

Q: For GGCAUAGCUCAACACAGCGUGGCAAAGUGGCUGGGGCUAGUCUGCC, which self-cleavage is on record?
A: Its self-cleavage is 0.02.

Q: Which self-cleavage does the source give for GGCAGAGCUAAACACAGCGUGGCAAAUUGGCUGUGGCUACACUGCC here?
A: Its self-cleavage is 0.03.

Q: With GGCAGAGCUCAACACAGCGUGGCAAUGUGACUGCGGCUAGACUGCC as the variant, how does the self-cleavage read?
A: Its self-cleavage is 0.08.

Q: Which self-cleavage does the source give for GGCACAGCGCGAAACAGCGUGGCAAAGUGGCUGUGGAUAGGCUGCC here?
A: The self-cleavage was 0.01.

Q: Which self-cleavage does the source give for GGCAGAGCUCAACACAGCGUGGCAAAGUUGGUGUCGCUAGACUGCC here?
A: Its self-cleavage is 0.08.

Q: For GGCAGAGCACAACACAGCGUGGCAAAGUGGCUGUGGAUAGACUGAC, which self-cleavage is on record?
A: The self-cleavage was 0.17.

Q: Which self-cleavage does the source give for GGCCGAGCUCAACACUGCGUGUCAAAGUGUCUGUGGCUAGACUGCC here?
A: The self-cleavage was 0.27.

Q: For GGUAGAGCUCAACACAGCGUGGCAAAGAGGCUGUGGCUAGUCUGCC, which self-cleavage is on record?
A: The self-cleavage was 0.52.

Q: With GGUAGAGCUCAACACAGCGUUGCAAAGUGGCUGUGGCUAGACUGCU as the variant, how does the self-cleavage read?
A: The self-cleavage was 0.15.

Q: With GGCAGAGCUCUACACAGCGUGGAAAAGUUGCUGUGGCUACACUGCC as the variant, how does the self-cleavage read?
A: The self-cleavage was 0.01.

Q: Which self-cleavage does the source give for GGCAGAGCUCAACACAGCGUGUCAAAGUGGCUGUGUCUAGACUGCA here?
A: The self-cleavage was 0.15.

Q: For GGCAGAGCUCAACACUGCGUGACAAAGUGGCUGCGGCUACACUGCC, which self-cleavage is on record?
A: The self-cleavage was 0.01.

Q: Which self-cleavage does the source give for GGCAAAGGUCAACACAUCGUGGCAAAGUGGCUGUGGCUGGACUGCC here?
A: The self-cleavage was 0.02.

Q: With UGCAGAGCUAAACACAGCGAGGCAAAGUGGCUGUGGCUAGACUGCC as the variant, how does the self-cleavage read?
A: The self-cleavage was 0.

Q: For GGCAGAGACCAACACAGCGUGCCUAAGUGGCUGUGUCUAGACUGCA, which self-cleavage is on record?
A: The self-cleavage was 0.09.

Q: Which self-cleavage does the source give for GACCGAGCUCCACACAGCUUGGCAAAGUGGCUGUGGGUAGACUGCC here?
A: Its self-cleavage is 0.01.

Q: With GGUGGAGCUCAACACAUCGAGGCAAAGUGGCUGUGGCUAUACUGCC as the variant, how does the self-cleavage read?
A: The self-cleavage was 0.03.

Q: With GGCAGAGCUCAACACAGGGUGGCAUAGUGGCUGUGGCUAGGCUGCC as the variant, how does the self-cleavage read?
A: The self-cleavage was 0.19.

Q: Which self-cleavage does the source give for GGGAGAGCUCAACACAGCGUGGCAAAGUGGCUGUGGCUACACUGCA here?
A: The self-cleavage was 0.2.

Q: With GGCAGAGCUCAACACAGCGUGGCAAAGUGGCUGUUGCUAGAUGGAC as the variant, how does the self-cleavage read?
A: The self-cleavage was 0.03.

Q: With GGCCGAGCUCAACACAGCGUGGCAAAGUGGCGGUGGCGAGACUGUC as the variant, how does the self-cleavage read?
A: Its self-cleavage is 0.01.

Q: With GGAAGAGCUCAAAACUGCGUGGCAAAGUGGCUGUGGCUAGACUGCC as the variant, how does the self-cleavage read?
A: The self-cleavage was 0.04.

Q: For GGCAGAGCUCACCACAGCGUGGCAAAGUUGCUGUGGCUAUACUGCC, which self-cleavage is on record?
A: The self-cleavage was 0.01.

Q: Which self-cleavage does the source give for GGCACAGGUCAACACAGCGCGGCUACGUGGCUGUGGCUAGACUGCA here?
A: Its self-cleavage is 0.01.

Q: With GGCAUAGCAUAACACCGCGUGGCAACGUGGUUGUGGCUAGACUGCC as the variant, how does the self-cleavage read?
A: The self-cleavage was 0.02.

Q: With GGCAGAGCUCAACACAGGGUGGCAAAGUUGCUGUGGCUAGAUUGCC as the variant, how does the self-cleavage read?
A: The self-cleavage was 0.14.

— the RNAGym collection of RNA variant scans (doi:10.7554/elife.90254)
